# Data from the supplement of paper PMC3334620.
# Whole data set: some 33,000 sequences, median “E-score (-0.5 to 0.5)” near -0.021, cut for the highest 2% near 0.32. This is one part of the list.
# Biological target: T1, Zap1 (UniProt P47043)
# T1 sequence: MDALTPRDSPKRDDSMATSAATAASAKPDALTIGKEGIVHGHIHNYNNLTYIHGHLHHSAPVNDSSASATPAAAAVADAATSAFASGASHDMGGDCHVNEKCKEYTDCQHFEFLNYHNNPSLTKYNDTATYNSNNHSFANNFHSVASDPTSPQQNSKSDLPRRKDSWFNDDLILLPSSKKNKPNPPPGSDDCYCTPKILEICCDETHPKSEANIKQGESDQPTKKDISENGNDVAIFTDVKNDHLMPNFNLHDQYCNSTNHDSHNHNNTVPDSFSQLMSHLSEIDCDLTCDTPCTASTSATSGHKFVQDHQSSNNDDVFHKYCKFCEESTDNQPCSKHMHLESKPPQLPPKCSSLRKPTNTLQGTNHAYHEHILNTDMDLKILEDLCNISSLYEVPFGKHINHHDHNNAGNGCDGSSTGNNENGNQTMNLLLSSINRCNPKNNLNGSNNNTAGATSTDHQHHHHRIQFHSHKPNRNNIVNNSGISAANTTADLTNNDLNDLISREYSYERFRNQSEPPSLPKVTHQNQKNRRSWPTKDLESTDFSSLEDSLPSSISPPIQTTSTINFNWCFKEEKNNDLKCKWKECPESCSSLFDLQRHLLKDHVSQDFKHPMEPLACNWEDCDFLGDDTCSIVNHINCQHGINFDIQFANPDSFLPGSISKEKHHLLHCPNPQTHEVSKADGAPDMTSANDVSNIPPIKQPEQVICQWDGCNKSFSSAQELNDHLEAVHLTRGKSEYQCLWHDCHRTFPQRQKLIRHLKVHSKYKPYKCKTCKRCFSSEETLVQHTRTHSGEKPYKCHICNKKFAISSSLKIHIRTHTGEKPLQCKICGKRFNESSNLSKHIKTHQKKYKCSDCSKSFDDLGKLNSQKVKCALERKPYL
# Assay: PBM E-score (8-mer binding enrichment) (E-score (-0.5 to 0.5)); higher = stronger / more preferred TF binding; most listed sequences are background and not binding sites
# Details: protein concentration: 200 nM; construct: GST-full length
# Procedure, shortened: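 Yeast transcription factors, full-length or as DNA-binding domains, were expressed with a GST tag using PURExpress in vitro transcription/translation. At about 100-200 nM they were applied to universal all-10-mer Agilent arrays, double-stranded by primer extension on fresh or once-stripped slides. Fluorescent anti-GST detected bound protein, and masliner normalised the scans. E-scores for ungapped eight-base words, pooled with reverse complements, came from the Universal PBM Analysis Suite.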
row,Sequence,PBM E-score
1,GATTTGAA,0.018
2,ACAGTCTG,-0.103
3,GAGAGCCC,-0.309
4,GAGCCAGA,-0.0646
5,CAAATTTC,0.0744
6,TACGATAA,0.12
7,AACTCGCT,0.0379
8,GACCACTC,0.0556
9,AGCTCGCA,-0.204
10,ACATACCG,-0.00488
11,AGCATCAT,-0.0814
12,AAAGGAAG,-0.153
13,GCCTGATA,-0.177
14,CTCGCGAA,-0.0511
15,GTACCTCA,0.283
16,CTAGGCAC,-0.107
17,ATAAATAA,0.282
18,CAATGGAA,0.0791
19,GTGAGCCA,-0.0377
20,CCTCTTCA,0.0402
21,ATAAGTAA,0.226
22,CGGGATCC,-0.0153
23,CTTTACTA,0.162
24,CCGTGAAA,0.188
25,GCCCCTGA,-0.0457

row,Sequence,PBM E-score
1,AACTTGCA,-0.105
2,ACGGTTTG,0.0504
3,AGATTATG,0.113
4,AATTAGCC,-0.114
5,AGCGTGGG,-0.176
6,CACATGCG,-0.0352
7,ACATCATA,0.123
8,CCATCCCC,-0.228
9,TCGTCACA,-0.0338
10,AGAAAAAC,0.158
11,CTCTTAGA,-0.00743
12,CCGGTCCC,0.0065
13,ATTACGAG,0.0606
14,TACCAAAA,0.161
15,CATTCTTC,-0.0631
16,GTAACGAC,0.105
17,CACTAGCA,-0.00655
18,ATGGGCTG,-0.246
19,AGATACGA,0.122
20,CAGGGACG,-0.161
21,TCGGCCAA,-0.107
22,CGAATGGC,0.0541
23,CCCACTGC,-0.119
24,GGCCACGA,0.126
25,CAGCCCAA,-0.0128

row,Sequence,PBM E-score
1,CGAACCGA,0.0656
2,AGTGGCGG,-0.0506
3,TAGCTCCA,-0.208
4,TCGTGCCA,-0.186
5,CCACTTTC,-0.101
6,AATCACCA,0.214
7,AACTAAAT,0.0365
8,ACAGGCCC,-0.203
9,TAGATCCA,-0.0356
10,CTGTGGCA,-0.243
11,GGGGCCGA,-0.214
12,ACTATCAC,0.144
13,AAGGTACT,0.33
14,TCGCCACA,-0.04
15,ACGGGGGC,-0.272
16,CGTGATTC,-0.158
17,CCTTTGAA,0.108
18,CATAGTAA,0.217
19,ACTCCCCT,-0.137
20,CGCCACAA,0.141
21,CAAAGTGC,-0.0833
22,GATCCTAC,-0.0307
23,CGCTGGTC,-0.0985
24,ATCTCTGG,-0.106
25,AGGTGTAA,0.0658

row,Sequence,PBM E-score
1,CCAGACAG,-0.0456
2,TGGTGACA,0.0463
3,ATCGCGAT,0.113
4,ACTCGTAA,0.232
5,CCTGTTAG,0.14
6,ATCTGGCG,-0.115
7,GAGGCGGA,-0.283
8,CCAACAGC,-0.0518
9,AAGTACCC,0.34
10,CATATATC,0.0886
11,GACCTTAC,0.13
12,CGTGAATA,-0.137
13,CCCGGTGC,-0.158
14,CCCTATAC,-0.0118
15,ATTGGCGG,-0.0834
16,CGGAAGCA,0.0721
17,ACCCCAAG,0.311
18,ATCGGACA,0.0708
19,CGGATTAG,-0.123
20,GCGGCTGA,-0.101
21,TCCGCAAA,0.0428
22,AACGTCCA,-0.143
23,AAGATCTA,-0.16
24,GGGAAGGA,-0.263
25,CGGCGGTA,0.143

row,Sequence,PBM E-score
1,GTTATAGA,0.175
2,AAAAAATG,0.17
3,CCAACGGC,-0.24
4,ATCTAACA,-0.0218
5,ATGGAGCG,-0.202
6,TAGTTCAA,0.0304
7,CCTATACG,-0.0975
8,AGTGGTCG,0.0644
9,GGAGTCCC,-0.0364
10,AACTCACG,0.0299
11,TAGTGAGA,-0.145
12,GGCAGGAA,-0.185
13,GTACGGTA,0.246
14,ACCAAGAC,0.0309
15,ATCCGAAA,0.102
16,TAGCCTAA,-0.0154
17,ACTGGTGC,-0.0153
18,GAGGCGGC,0.0176
19,GTAGGGAC,-0.0704
20,CATATGAG,0.0929
21,CGCTGAAA,0.0756
22,AGCTATAT,-0.211
23,GGGCGAGA,-0.219
24,GCCTCCTA,-0.28
25,TCAATTCA,-0.0395

row,Sequence,PBM E-score
1,CCCTTCCC,0.163
2,CTCTTCGA,-0.00709
3,CCGCGAGG,0.223
4,AGCGGACG,-0.084
5,AGTCTCCC,-0.332
6,GCTGGACA,-0.27
7,TGGGACCA,-0.0424
8,AGAGCCAA,-0.0107
9,AAAAAACC,0.251
10,CTAAGACC,0.134
11,CTCCATAA,-0.0524
12,AAGTGCCG,-0.0393
13,CAGGAAGC,0.0803
14,GCGTGCAA,-0.107
15,AAGCTGGG,-0.232
16,AAAACCGG,0.272
17,AGTGCCAC,-0.123
18,AGATGTCC,-0.0648
19,GAGTAAAA,-0.0343
20,ACTAAATG,-0.036
21,GCCCACGA,-0.113
22,AATACCCG,0.177
23,ATCTTCGA,0.00964
24,CTGGCAAA,0.0558
25,GTGCGATA,-0.0457

row,Sequence,PBM E-score
1,ACTATGTA,-0.153
2,ATGACTTG,-0.111
3,CTGAACTC,-0.111
4,TCCTCCAA,-0.0474
5,GAGTGTGC,-0.142
6,ATGACTGC,-0.127
7,ACTCCAAT,0.00611
8,GCGTGAAA,0.0792
9,GAGAATGC,-0.181
10,TCAATAGA,-0.0863
11,ACAACGCC,-0.00641
12,CCCCAAGC,0.0513
13,CGGCCGAG,0.00749
14,CCTAGGGA,-0.0988
15,GAGCGCCC,-0.171
16,CACAATTC,0.024
17,TACATAAA,0.112
18,AGCGAGTC,-0.193
19,AGTGCAAG,-0.0595
20,ATGGCCTC,0.142
21,AACCGAGC,-0.0403
22,AACGCCGC,-0.0363
